# Test results from a collection of fitness landscapes (doi:10.1016/j.celrep.2020.107928).
# Over roughly 81,000 sequences, “one-hybrid fitness for binding parS DNA” has its median near -0.17; the highest 2% begin near 0.51. The list shows a part of the results.
# B1: Caulobacter ParB omega fusion; a variant is named by its letters at X, in order, B8GW30 (parent)
# chain: MESVVVGEPGMSEGRRGLGRGLSALLGEVDAAPAQAPGEQLGGSREAPIEILQRNPDQPRRTFREEDLEDLSNSIREKGVLQPILVRPSPDTAGEYQIVAGERAWRAAQRAGLKTVPIMVRELDDLAVLEIGIIENVQRADLNVLEEALSYKVLMEKFERTQENIAQTIGKSXSHVANXMRLLXLPDEVQSYLVSGELTAXHARAIAAAADPVALAKQIIEGGLSVRETEALARKAPNLSAGKSKGGRPPRVKDTDTQALESDLSSVLGLDVSIDHRGSTGTLTITYATLEQLDDLCNRLTRGI
# Variants of: B1
# Assay: one-hybrid fitness for binding parS DNA (scaled: cognate 1, non-cognate 0); higher = stronger binding
# Conditions: with parS DNA site
# How it was run: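 Bacterial one-hybrid selection in E. coli USO rpoZ- hisB- pyrF- with a HIS3 reporter carrying the site 19 bp from the promoter, screening Caulobacter ParB libraries with four specificity codons randomised (NNS). Cells grew 48 hours at 37°C on M9-minus-histidine plus 0.1 mM IPTG and 5 mM 3-AT. Plasmids before and after selection were Illumina-sequenced, three replicate libraries pooled, and variants under 10 reads dropped. Fitness is the log change in variant-to-wild-type read ratio, rescaled to cognate 1, non-cognate 0.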
row,Variant,one-hybrid fitness for binding parS DNA
1,ALKP,≤ 0.2
2,TWLT,≤ 0.2
3,TKVR,≤ 0.2
4,YRDG,≤ 0.2
5,PIPY,≤ 0.2
6,PVHK,≤ 0.2
7,ASAT,≤ 0.2
8,HIRT,≤ 0.2
9,LHWC,≤ 0.2
10,RYPR,≤ 0.2
11,TNLC,≤ 0.2
12,YGGT,≤ 0.2
13,PYHC,≤ 0.2
14,VVAY,≤ 0.2
15,AVKW,≤ 0.2
16,QNED,≤ 0.2
17,INMG,≤ 0.2
18,SRYE,≤ 0.2
19,MARG,≤ 0.2
20,LSGW,≤ 0.2
21,RYVV,≤ 0.2
22,TARR,≤ 0.2
23,PNQM,≤ 0.2
24,NYHK,≤ 0.2

row,Variant,one-hybrid fitness for binding parS DNA
1,LAGV,≤ 0.2
2,GLTC,≤ 0.2
3,PTIV,≤ 0.2
4,YLAK,≤ 0.2
5,CVCR,≤ 0.2
6,TSFA,≤ 0.2
7,KMTC,≤ 0.2
8,HSGV,≤ 0.2
9,IGTG,≤ 0.2
10,SGDR,≤ 0.2
11,DNCG,≤ 0.2
12,RVCD,≤ 0.2
13,VSRA,≤ 0.2
14,RKVV,≤ 0.2
15,GTGV,≤ 0.2
16,FAST,≤ 0.2
17,RSKY,0.609
18,ILCG,≤ 0.2
19,SMDT,≤ 0.2
20,ILKL,≤ 0.2
21,LHDV,≤ 0.2
22,CLVG,≤ 0.2
23,PQEL,≤ 0.2
24,FHCS,≤ 0.2

row,Variant,one-hybrid fitness for binding parS DNA
1,SSSF,≤ 0.2
2,EGRH,≤ 0.2
3,ITES,≤ 0.2
4,VRGL,≤ 0.2
5,QWPE,≤ 0.2
6,QMQL,≤ 0.2
7,PYTV,≤ 0.2
8,KTYR,≤ 0.2
9,VMRR,≤ 0.2
10,YSST,≤ 0.2
11,YHGF,≤ 0.2
12,YRPP,≤ 0.2
13,DGTT,≤ 0.2
14,RKQT,0.729
15,QKAS,≤ 0.2
16,KVSI,≤ 0.2
17,RWYD,≤ 0.2
18,RIHA,0.574
19,WMFS,≤ 0.2
20,HIFG,≤ 0.2
21,TDIG,≤ 0.2
22,QAWK,≤ 0.2
23,HSPM,≤ 0.2
24,PLSI,≤ 0.2

row,Variant,one-hybrid fitness for binding parS DNA
1,QSDT,≤ 0.2
2,SQPY,≤ 0.2
3,DTRD,≤ 0.2
4,NKPY,≤ 0.2
5,MSWR,≤ 0.2
6,TILR,≤ 0.2
7,PDGM,≤ 0.2
8,VRVY,≤ 0.2
9,PSRE,≤ 0.2
10,YETW,≤ 0.2
11,YYDS,≤ 0.2
12,SCHL,≤ 0.2
13,RYAI,≤ 0.2
14,TTYA,≤ 0.2
15,QGHR,≤ 0.2
16,CIDS,≤ 0.2
17,QNTR,≤ 0.2
18,EQKR,≤ 0.2
19,APVW,≤ 0.2
20,MDNS,≤ 0.2
21,TYWS,≤ 0.2
22,DRPM,≤ 0.2
23,WQLY,≤ 0.2
24,TEKV,≤ 0.2

row,Variant,one-hybrid fitness for binding parS DNA
1,IYTN,≤ 0.2
2,NQIS,≤ 0.2
3,SSHC,≤ 0.2
4,TMQE,≤ 0.2
5,NKTL,≤ 0.2
6,GYMT,≤ 0.2
7,HANS,≤ 0.2
8,PPYR,≤ 0.2
9,LHCL,≤ 0.2
10,HNVL,≤ 0.2
11,YDLI,≤ 0.2
12,RNSK,≤ 0.2
13,GCKE,≤ 0.2
14,QQPQ,≤ 0.2
15,FGRH,≤ 0.2
16,VQLW,≤ 0.2
17,PYKQ,≤ 0.2
18,SRRW,≤ 0.2
19,RGSH,≤ 0.2
20,DAMD,≤ 0.2
21,TFYE,≤ 0.2
22,TTCC,≤ 0.2
23,SAPK,≤ 0.2
24,SYFM,≤ 0.2

row,Variant,one-hybrid fitness for binding parS DNA
1,GMNL,≤ 0.2
2,PHTP,≤ 0.2
3,RNDL,≤ 0.2
4,NHHK,≤ 0.2
5,YFYM,≤ 0.2
6,QNLE,≤ 0.2
7,MPPW,≤ 0.2
8,EGLM,≤ 0.2
9,FPVL,≤ 0.2
10,GHST,≤ 0.2
11,KAEG,≤ 0.2
12,IWTI,≤ 0.2
13,RGRN,0.341
14,MTHV,≤ 0.2
15,SVSG,≤ 0.2
16,MSPK,≤ 0.2
17,VVPT,≤ 0.2
18,TGIG,≤ 0.2
19,VHLY,≤ 0.2
20,CVTR,≤ 0.2
21,RHQD,≤ 0.2
22,MHLG,≤ 0.2
23,ENYE,≤ 0.2
24,CIWS,≤ 0.2

row,Variant,one-hybrid fitness for binding parS DNA
1,FTQL,≤ 0.2
2,FRQR,≤ 0.2
3,ENVR,≤ 0.2
4,VPEL,≤ 0.2
5,MRFS,≤ 0.2
6,RQRR,≤ 0.2
7,QYGY,≤ 0.2
8,EITT,≤ 0.2
9,HAIF,≤ 0.2
10,KDPS,≤ 0.2
11,YRES,≤ 0.2
12,ATAN,≤ 0.2
13,NHNE,≤ 0.2
14,NERR,≤ 0.2
15,MARY,≤ 0.2
16,WMTM,≤ 0.2
17,TRVY,≤ 0.2
18,AKHC,≤ 0.2
19,IMRL,≤ 0.2
20,LTTG,≤ 0.2
21,NAER,≤ 0.2
22,QVNI,≤ 0.2
23,TIKD,≤ 0.2
24,QNWS,≤ 0.2

row,Variant,one-hybrid fitness for binding parS DNA
1,GTTG,≤ 0.2
2,SFLV,≤ 0.2
3,SFKG,≤ 0.2
4,CTHM,≤ 0.2
5,DYRN,≤ 0.2
6,NRPY,≤ 0.2
7,TWEM,≤ 0.2
8,SSFS,≤ 0.2
9,QRRY,≤ 0.2
10,NTHC,≤ 0.2
11,FRNK,≤ 0.2
12,RNHV,≤ 0.2
13,MNKS,≤ 0.2
14,PQHR,≤ 0.2
15,NYVI,≤ 0.2
16,EMKS,≤ 0.2
17,CCVG,≤ 0.2
18,WKGT,≤ 0.2
19,YEVS,≤ 0.2
20,APFF,≤ 0.2
21,LAGH,≤ 0.2
22,QSHA,≤ 0.2
23,RYMA,0.553
24,CTLN,≤ 0.2

row,Variant,one-hybrid fitness for binding parS DNA
1,WWPE,≤ 0.2
2,ENTI,≤ 0.2
3,YEDS,≤ 0.2
4,LFDS,≤ 0.2
5,YLCS,≤ 0.2
6,HTET,≤ 0.2
7,SYLC,≤ 0.2
8,VYPS,≤ 0.2
9,QYNI,≤ 0.2
10,SYWY,≤ 0.2
11,TGLS,≤ 0.2
12,WNHG,≤ 0.2
13,KAAM,≤ 0.2
14,NTYR,≤ 0.2
15,PSQL,≤ 0.2
16,VKCA,≤ 0.2
17,TKYI,≤ 0.2
18,WQDR,≤ 0.2
19,EMMR,≤ 0.2
20,FCQC,≤ 0.2
21,PHCY,≤ 0.2
22,SIKD,≤ 0.2
23,VVTQ,≤ 0.2
24,WTPH,≤ 0.2

row,Variant,one-hybrid fitness for binding parS DNA
1,RWCN,≤ 0.2
2,HHRV,≤ 0.2
3,MGKC,≤ 0.2
4,VSTL,≤ 0.2
5,PIDG,≤ 0.2
6,AYLG,≤ 0.2
7,RPQD,≤ 0.2
8,RDYR,≤ 0.2
9,HGNW,≤ 0.2
10,FDNC,≤ 0.2
11,LCKY,≤ 0.2
12,CGGV,≤ 0.2
13,RSAT,0.869
14,QCMK,≤ 0.2
15,LQTS,≤ 0.2
16,PIVR,≤ 0.2
17,TTCS,≤ 0.2
18,ASRY,≤ 0.2
19,AMPM,≤ 0.2
20,VARE,≤ 0.2
21,SEKY,0.242
22,TMKN,≤ 0.2
23,SMYK,≤ 0.2
24,AFTT,≤ 0.2

row,Variant,one-hybrid fitness for binding parS DNA
1,YARA,≤ 0.2
2,HNAG,≤ 0.2
3,SGKG,≤ 0.2
4,PACA,≤ 0.2
5,RWEY,≤ 0.2
6,IENT,≤ 0.2
7,WMLA,≤ 0.2
8,SAKA,≤ 0.2
9,QVYI,≤ 0.2
10,QNTD,≤ 0.2
11,ELPE,≤ 0.2
12,GCNC,≤ 0.2
13,HDLC,≤ 0.2
14,IQDT,≤ 0.2
15,ATCF,≤ 0.2
16,CLYL,≤ 0.2
17,LDMK,≤ 0.2
18,IYTT,≤ 0.2
19,LDTV,≤ 0.2
20,EFAS,≤ 0.2
21,ENHC,≤ 0.2
22,GNSW,≤ 0.2
23,PYWI,≤ 0.2
24,ENWC,≤ 0.2

row,Variant,one-hybrid fitness for binding parS DNA
1,SENF,≤ 0.2
2,SNGS,≤ 0.2
3,QYQS,≤ 0.2
4,IFWT,0.24
5,GPCT,≤ 0.2
6,STCF,≤ 0.2
7,NDTC,≤ 0.2
8,SAAD,≤ 0.2
9,TMPY,≤ 0.2
10,RSIF,≤ 0.2
11,YYQS,≤ 0.2
12,CSII,≤ 0.2
13,WQGG,≤ 0.2
14,LRKD,≤ 0.2
15,HVHC,≤ 0.2
16,RMAN,0.46
17,EPHS,≤ 0.2
18,CAMG,≤ 0.2
19,WKVS,≤ 0.2
20,EENG,≤ 0.2
21,WYLG,≤ 0.2
22,SQQR,≤ 0.2
23,NLIV,≤ 0.2
24,MAFG,≤ 0.2

row,Variant,one-hybrid fitness for binding parS DNA
1,PYIL,≤ 0.2
2,FPKF,≤ 0.2
3,RSWA,0.546
4,GENV,≤ 0.2
5,PPDR,≤ 0.2
6,TFNC,≤ 0.2
7,PLAE,≤ 0.2
8,ILGC,≤ 0.2
9,MQQS,≤ 0.2
10,HNTV,≤ 0.2
11,SDGM,≤ 0.2
12,PPPY,≤ 0.2
13,GMWK,≤ 0.2
14,AGQY,≤ 0.2
15,LTPG,≤ 0.2
16,MDMG,≤ 0.2
17,WHCS,≤ 0.2
18,HPNT,≤ 0.2
